In test [1] the test system is KB-3-1. Nature of the test: growth inhibition relative to DMSO control (SRB); cervical cancer cells: KB-3-1 is the parent and KB-V1 overexpresses MDR1; SRB is the sulforhodamine B stain; higher = more growth inhibition. The conditions noted are these: 1 µM; 72 h.
For test [2], the system named is KB-V1. Described as above. The conditions noted are these: 1 µM; 72 h.

Where a name gives a salt, the structure may show the parent alone. Some of the results follow. Repeats are few or missing, and single values can be far off.

Data on 36 compounds can be found in the supplement of paper PMC7266297.
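Also: Read-out is SRB optical density at 490 nm, with the control being wells given 0.5% DMSO vehicle, and compound added one day after cells were plated.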

Turning to `Cn1c(=O)c2[nH]cnc2n(C)c1=O` [Aminophylline], the growth inhibition was found to be 32.7% in test [1] and 12.8% in test [2].
The matching figures for `CC(C)(C)NC[C@H](O)COc1nsnc1N1CCOCC1` [Timolol Maleate]: 32.8% and 22.9%.
Regarding `CN1CCCC(n2nc(Cc3ccc(Cl)cc3)c3ccccc3c2=O)CC1` (configuration not stated) [Azelastine HCl], the growth inhibition in test [1] came to 31.3%; in test [2], 8.51%.
The corresponding values for `COc1cc2nc(N3CCCN(C)CC3)nc(NC3CCN(Cc4ccccc4)CC3)c2cc1OC` are 97% and 63.7%.
Turning to `Nc1nc(CC(=O)Nc2ccc(CCNC[C@H](O)c3ccccc3)cc2)cs1` [Mirabegron], the growth inhibition is under 0% in test [1] and 4.25% in test [2].
The matching figures for `COC(=O)C1=C(C)NC(C)=C(C(=O)OCCN2CCN(C(c3ccccc3)c3ccccc3)CC2)C1c1cccc([N+](=O)[O-])c1` (configuration not stated) [Manidipine]: 21.6% and 0.746%.
Regarding `Cn1cc(-c2cnn3c(N)c(Br)c([C@@H]4CCCNC4)nc23)cn1`, the growth inhibition in test [1] and in test [2] was under 0% in each case.
With `C[C@@H](O[C@H]1OCCN(Cc2n[nH]c(=O)[nH]2)[C@H]1c1ccc(F)cc1)c1cc(C(F)(F)F)cc(C(F)(F)F)c1` [Aprepitant], the results for the growth inhibition in test [1] and in test [2] were 38.7% and 43.6%, respectively.
The corresponding values for `CCOc1cc([C@@H](CS(C)(=O)=O)N2C(=O)c3cccc(NC(C)=O)c3C2=O)ccc1OC` are 43.7% and 5.56%.
The corresponding values for `Cc1cc(Nc2cc(CN3CCOCC3)c3nc(C)c(Cc4ccc(Cl)cc4F)n3n2)n[nH]1` are 87.1% and 73.8%.
The corresponding values for `CC(=O)c1cc([N+](=O)[O-])c(Sc2ccc(F)cc2F)s1` are under 0% and under 0%.
As to `O=C1NC(=O)C(=Cc2ccc(-c3ccc(F)cc3)o2)S1` (stereo in doubt), the growth inhibition in test [1] and in test [2] was under 0% in each case.
In the case of `CCCSc1nc(N[C@@H]2C[C@H]2c2ccc(F)c(F)c2)c2nnn([C@@H]3C[C@H](OCCO)[C@@H](O)[C@H]3O)c2n1` [Ticagrelor], the growth inhibition in test [1] came out at 35.4%; in test [2], 13.8%.
For the compound `COc1ccc(COc2ccc(Cc3cnc(N)nc3N)cc2OC)cc1`, the growth inhibition was 43.3% in test [1] and 5.56% in test [2].
The matching figures for `O=C1NC(=O)C(c2ccccc2)(c2ccccc2)N1` [Phenytoin]: 26% and 8.51%.
`N#CSc1cc(SC#N)c(N)nc1N`: the values for the growth inhibition in test [1] and in test [2] were 7.8% and under 0%, respectively.
In the case of `C[C@@H]1COC(Nc2ccc3ncnc(Nc4ccc(OCc5nccs5)c(Cl)c4)c3c2)=N1` [Varlitinib], the growth inhibition in test [1] is under 0%; in test [2], 7.81%.
The corresponding values for `CCCCCCCCOc1ccccc1C(=O)Nc1ccc(C(=O)OCC[N+](C)(CC)CC)cc1` [Otilonium Bromide] are under 0% and 1.63%.
The matching figures for `CN(C)C(=O)c1ccc(S(=O)(=O)c2ccc(NC(=O)[C@@](C)(O)C(F)(F)F)c(Cl)c2)cc1`: 45.6% and 5.56%.
The corresponding values for `O=C(O)CCCCC(CCSCc1ccccc1)SCc1ccccc1` (configuration not stated) are 18.3% and 56.4%.
In the case of `O=C(NS(=O)(=O)c1ccc(Br)s1)c1ccc(Cl)cc1Cl` [Tasisulam], the growth inhibition in test [1] and in test [2] was under 0% each time.
As to `CCCc1nn(C)c2c(=O)[nH]c(-c3cc(S(=O)(=O)N4CCN(C)CC4)ccc3OCC)nc12` [Sildenafil Citrate], the results for the growth inhibition in test [1] and in test [2] were 10.6% and 39.6%, respectively.
The matching figures for `C=C1C(=O)O[C@@H]2/C=C(\C)CC/C=C(\C)CC[C@@H]12` [Costunolide]: 25.7% and 40.3%.
The corresponding values for `C[C@H](CS)C(=O)N1CCC[C@H]1C(=O)O` [Captopril] are 23.8% and 22.3%.
Turning to `CCCC(=O)Nc1ccc(OCC(O)CNC(C)C)c(C(C)=O)c1` (configuration not stated) [Acebutolol HCl], the growth inhibition in test [1] and in test [2] was under 0% each time.
As to `Cc1ccc(-c2cc(C(F)(F)F)nn2-c2ccc(S(N)(=O)=O)cc2)cc1` [Celecoxib], the figures for the growth inhibition in test [1] and in test [2] were under 0% and 22.3%, respectively.
On to `Clc1cccc(Cl)c1NC1=NCCN1` [Clonidine HCl], for which the growth inhibition in test [1] was determined as 26%; in test [2] it was 5.22%.
The corresponding values for `CC(=O)OCC[N+](C)(C)C` [Acetylcholine Chloride] are 46.6% and 22.1%.
In the case of `CS(=O)(=O)CCNCc1ccc(-c2ccc3ncnc(Nc4ccc(OCc5cccc(F)c5)c(Cl)c4)c3c2)o1`, the growth inhibition in test [1] was 76.9%; in test [2], 49.4%.
The matching figures for `COCC[n+]1c2c(n(Cc3cnccn3)c1C)C(=O)c1ccccc1C2=O` [YM155 (Sepantronium Bromide)]: 99.4% and 73.6%.
The corresponding values for `C[C@]12C=CC(=O)N[C@@H]1CC[C@@H]1[C@@H]2CC[C@]2(C)[C@@H](C(=O)Nc3cc(C(F)(F)F)ccc3C(F)(F)F)CC[C@@H]12` [Dutasteride] are 40.3% and 42.8%.
For `CC(C)C[C@H](NC(=O)CNC(=O)c1cc(Cl)ccc1Cl)B(O)O`, the growth inhibition in test [1] and in test [2] was under 0% each time.
Regarding `O=C(c1ccc(OCCCc2c[nH]cn2)cc1)C1CC1` [Ciproxifan], the growth inhibition is 21.5% in test [1] and under 0% in test [2].
The corresponding values for `CC(=O)Nc1ccc(NC(=S)NC(=O)c2ccc(C(C)(C)C)cc2)cc1` [Tenovin-1] are 39.6% and 3.09%.
Consider `C=CC(=O)Nc1cccc(Nc2nc(Nc3ccc(Oc4ccnc(C(=O)NC)c4)cc3)ncc2F)c1`, for which the growth inhibition in test [1] came out at 18.8%; in test [2], 36.6%.
For `CCOc1nc2cccc(C(=O)O)c2n1Cc1ccc(-c2ccccc2-c2nnn[nH]2)cc1` [Candesartan], the growth inhibition turned out to be 27.7% in test [1] and 9.13% in test [2].
